Source: US20210087281A1 (AGOMAB THERAPEUTICS, published 2021)

What was measured:
Assay in all cases: cell-based or functional assay
[1] = molecular target: T1, native human MET on living cells (human, UniProt P08581)
[2] = molecular target: T1, native human MET on living cells; remark: listed apart in the source
[3] = molecular target: T1, native human MET on living cells; remark: listed apart in the source
[4] = molecular target: T1, native human MET on living cells; remark: listed apart in the source

T1 sequence (P08581 25-1390): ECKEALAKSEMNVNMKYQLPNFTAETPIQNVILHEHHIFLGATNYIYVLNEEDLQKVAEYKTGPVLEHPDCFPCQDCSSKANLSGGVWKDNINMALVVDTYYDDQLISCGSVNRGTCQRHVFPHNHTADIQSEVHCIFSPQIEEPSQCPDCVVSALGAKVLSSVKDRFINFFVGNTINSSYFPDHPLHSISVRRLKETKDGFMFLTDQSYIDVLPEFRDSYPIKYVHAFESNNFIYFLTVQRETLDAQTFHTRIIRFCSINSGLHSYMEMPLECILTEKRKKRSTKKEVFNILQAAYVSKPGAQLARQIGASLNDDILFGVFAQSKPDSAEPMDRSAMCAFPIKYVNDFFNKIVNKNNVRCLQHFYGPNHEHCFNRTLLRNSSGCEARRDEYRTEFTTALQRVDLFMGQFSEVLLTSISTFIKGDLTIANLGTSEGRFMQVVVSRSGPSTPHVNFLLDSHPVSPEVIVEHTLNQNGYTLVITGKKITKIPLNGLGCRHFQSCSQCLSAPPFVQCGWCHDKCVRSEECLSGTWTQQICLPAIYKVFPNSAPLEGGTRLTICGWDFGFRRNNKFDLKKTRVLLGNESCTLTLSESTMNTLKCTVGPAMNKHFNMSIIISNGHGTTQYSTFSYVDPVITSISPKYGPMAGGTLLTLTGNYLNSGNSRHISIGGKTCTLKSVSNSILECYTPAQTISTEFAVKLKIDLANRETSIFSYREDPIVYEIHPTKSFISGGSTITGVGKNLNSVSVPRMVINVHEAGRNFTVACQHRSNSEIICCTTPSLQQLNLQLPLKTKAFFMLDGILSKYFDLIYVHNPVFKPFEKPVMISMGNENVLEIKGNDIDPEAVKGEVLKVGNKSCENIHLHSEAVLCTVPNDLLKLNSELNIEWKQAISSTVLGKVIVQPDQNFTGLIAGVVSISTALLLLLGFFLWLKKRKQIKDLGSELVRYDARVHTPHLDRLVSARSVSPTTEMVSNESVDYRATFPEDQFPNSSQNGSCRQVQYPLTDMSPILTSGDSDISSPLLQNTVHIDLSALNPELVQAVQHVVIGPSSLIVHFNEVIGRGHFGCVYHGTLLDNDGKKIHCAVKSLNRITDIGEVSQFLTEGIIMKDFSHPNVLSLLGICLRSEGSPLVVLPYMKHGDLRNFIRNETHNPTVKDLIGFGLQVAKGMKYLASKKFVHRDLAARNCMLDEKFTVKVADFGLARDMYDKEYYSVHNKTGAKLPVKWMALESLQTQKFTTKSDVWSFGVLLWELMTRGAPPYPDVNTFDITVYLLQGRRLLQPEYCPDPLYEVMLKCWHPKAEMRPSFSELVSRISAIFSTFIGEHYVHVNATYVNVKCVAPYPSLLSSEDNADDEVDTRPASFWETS

scatter score 0-4, HPAF-II, 0.001 nM [1]: 0 score | scatter score 0-4, HPAF-II, 0.004 nM [1]: 1 score | scatter score 0-4, HPAF-II, 0.012 nM [1]: 2 score | scatter score 0-4, HPAF-II, 0.037 nM [1]: 3 score | scatter score 0-4, HPAF-II, 0.111 nM [1]: 4 score | scatter score 0-4, HPAF-II, 0.333 nM [1]: 4 score | scatter score 0-4, HPAF-II, 1.000 nM [1]: 4 score | scatter score 0-4, HPAF-II, 3.000 nM [1]: 4 score | scatter score 0-4, HPAF-II, 9.000 nM [1]: 4 score | phospho-MET ELISA EC50, A549 cells [2]: 0.19 nM | phospho-MET ELISA EMAX (% HGF activity), A549 cells [2]: 100% | branches per spheroid, LOC cells, 2.5 nM [4]: 27.7 branches | branches per spheroid, LOC cells, 12.5 nM [4]: 20.3 branches
B1: recombinant human HGF (R&D Systems) (ligand)
chain: not shown
modifications: biotinylated at the N-terminus using NHS-LC-biotin (in the competition ELISAs only)
protection from staurosporine, viability EC50, MCF10A cells [3]: 4.57 nM | protection from staurosporine, viability EMAX, MCF10A cells [3]: 59.3%
